# ChEMBL document CHEMBL4888484, “Replenishing the malaria drug discovery pipeline: Screening and hit evaluation of the MMV Hit Generation Library 1 (HGL1) against asexual blood stage Plasmodium falciparum ,using a nano luciferase reporter read-out” (2022)
# Out of some 150,000 compounds screened, about 540 (0.36%) showed an effect of 50% or more. This is one part of the list.
# System: Plasmodium falciparum
# Experiment: Primary screen in NF54 nanoGlo assay, in single point, at 2uM, 72h; a lower Z score goes with more inhibition
# Format: functional, Erythrocyte
# Details: timepoint 72 hour
SMILES,% Inhibition [%],Z score
Cc1noc(C)c1C(=O)NCc1nc(C2CCC(F)(F)CC2)no1,-10,1.22
O=C(NCc1cccc(Cl)c1)c1ccc(-c2[nH]nc3c2CCCc2ccccc2-3)cc1,2,-0.2
O=C(CCc1conc1-c1cccc(F)c1)NCC1CCCCC1,-13,1.78
COc1cccc([C@@H]2CNC(=O)c3nc(-c4csc(C)n4)[nH]c3C2)c1,-11,1.39
OCCO[C@H]1C[C@@H](O)C12CCN(Cc1nc3c(s1)CCCC3)CC2,-14,1.5
Cc1nc(C(=O)N(CCc2c[nH]c3ccccc23)C2CCCCC2)cs1,4,-0.81
CNc1nc2c(c(C(=O)N3CCCC3)n1)CN(C[C@H](C)c1ccccc1)CC2,-7,1.33
Cc1ccccc1C(=O)N1CCC[C@@H]1COc1ccc(C(=O)N2CCOCC2)cc1,-11,2.03
Cc1nc(C(C)(C)NCC(=O)NCc2cccs2)sc1C,-14,2.28
CC1CC1C(=O)NCCC(=O)Nc1ccc(N(C)C)cc1 (centres undefined),-7,0.72
C[C@]1(O)C[C@@H](NC(=O)N[C@H]2C[C@H](c3ccc(Br)cc3)C2)C1,-1,0.15
CCN(CC)C(=O)Cn1c(=O)n(Cc2ccccc2)c(=O)c2c1c(C)nn2CC,5,-0.64
COC(=O)CS(=O)(=O)N[C@@H](C)c1cccc(Cl)c1,5,-1.12
COc1ccc(C[C@H](C)C(=O)NCc2nccc(N)n2)cc1F,-7,0.99
COCC(=O)N1CCCN(C(=O)c2cn(C)c3ccc(C)cc3c2=O)CC1,-14,2.59
Cc1nc([C@H](C)NC(=O)c2cnc(C3CC3)nc2)n[nH]1,8,-1.09
Cc1ccc2nc(C)c(-c3nc(-c4cccnn4)no3)n2c1,-14,2.25
CC(C)C(C(=O)NCC1CCCO1)C(C)NC(=O)OC(C)(C)C (centres undefined),13,-1.46
CN1CCN(CC2=Nc3ccccc3S(=O)(=O)N2)c2ccccc21,-6,1.05
Cc1nsc(C(=O)N[C@H]2CCS(=O)(=O)C3(CCC3)C2)n1,-8,1.56
O=C(OCc1ccccc1)N1C2C=CC(CC2)C1c1ccc(OCc2ccccc2)cc1 (centres undefined),-24,2.87

SMILES,% Inhibition [%],Z score
Cn1cc(CN(C(=O)C[C@H]2CCCO2)C2CC2)cn1,-6,1.17
CN(C[C@H]1CCOC1)S(=O)(=O)c1ccc2c(c1)CCCC2,-7,0.93
Cc1ccc(-c2cnc(Oc3ccc(C(=O)NCc4ccccc4C)cc3)nc2)cc1,-5,0.61
CCCOc1ccc(CN(CCOC)CCOc2ccccc2F)cc1CO,-17,2.5
Cc1ncsc1C(=O)N(C)Cc1ccc(C2CC2C)o1 (centres undefined),-13,1.88
Cc1ccc2nc(COc3ccc(C)nc3)cn2c1,-16,2.54
CC(=O)N1N=C(c2cccc(Cl)c2)O[C@H]1c1ccc(OCc2ccccc2)cc1,5,-0.61
CCc1ccccc1NC(=O)CN1CCn2c(nnc2C(F)(F)F)C1,2,-0.42
Cc1cc2nc(-c3ccc(C)c(NC(=O)c4cc5ccccc5o4)c3)oc2cc1C,-10,1.63
Cc1cc(C(=O)N2CCC3(CCC(=O)N([C@H]4CCN(C)C4)C3)CC2)cs1,3,-0.54
CO[C@H]1[C@@H]2CC[C@H]1CN(Cc1cc(C#CCO)cs1)C2,-8,0.85
Cc1nc([C@H](C)NC(=O)c2ccccc2-c2nc[nH]n2)n[nH]1,-2,0.32
O=C(c1cscn1)N1Cc2cccnc2C1,-19,2.22
CS(=O)(=O)C[C@H]1CCCN(Cc2ccc3cccc(Cl)c3n2)C1,-4,0.51
Cc1cc(OCC(=O)N(C(C)C)C(C)C)c2cnn(C)c2n1,-9,1.26
Cc1cnn(CCNC(=O)CCc2cn[nH]c2)c1,-7,0.96
CCc1nn2c(-c3ccccn3)ccnc2c1-c1cccc(Cl)c1,-19,2.65
CC(C)C[C@H](C)N(C)C(=O)c1cc(F)cc(F)c1,-16,1.99
Cc1ccc(-c2csc(NC(=O)Cc3cccc4ccccc34)c2C(=O)O)cc1C,-11,1.86
CC1CC(C)CC2(C1)NC(=O)N(Cc1ccc(S(C)(=O)=O)o1)C2=O (centres undefined),-1,0.17
O=C1CCCN1Cc1cn(C2CN(C(=O)COc3ccc(Cl)cc3)C2)nn1,-16,2.5
